Test results as given in patent US20250066451A1 (SWEDISH ORPHAN BIOVITRUM AB PUBL, published 2025).
Numbering of substitutions follows the chain as printed.

T1: Human IL-1R-I (RnD Systems cat. no. 269-1R/CF) (human, UniProt P14778 18-332, limits assumed)
T1 construct: Bought recombinant protein; also called hIL-1R-I; hIL-1RI
T1 sequence (looked up): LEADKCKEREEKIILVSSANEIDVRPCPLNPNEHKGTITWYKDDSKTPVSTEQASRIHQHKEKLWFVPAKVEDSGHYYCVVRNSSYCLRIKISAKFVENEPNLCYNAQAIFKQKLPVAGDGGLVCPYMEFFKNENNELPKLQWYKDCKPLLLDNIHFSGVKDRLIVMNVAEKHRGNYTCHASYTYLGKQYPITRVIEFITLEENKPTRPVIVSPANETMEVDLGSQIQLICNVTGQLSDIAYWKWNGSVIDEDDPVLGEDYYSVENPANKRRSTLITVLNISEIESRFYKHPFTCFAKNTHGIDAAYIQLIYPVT

T2: human IL-1R-I (human, UniProt P14778 18-332, limits assumed)
T2 construct: bought recombinant protein; also called hIL-1R-I; hIL-1RI
T2 sequence (looked up): T1 sequence (looked up)

T3: IL-1R-I on TF-1 cells (UniProt P14778 18-569, limits assumed)
T3 sequence (looked up): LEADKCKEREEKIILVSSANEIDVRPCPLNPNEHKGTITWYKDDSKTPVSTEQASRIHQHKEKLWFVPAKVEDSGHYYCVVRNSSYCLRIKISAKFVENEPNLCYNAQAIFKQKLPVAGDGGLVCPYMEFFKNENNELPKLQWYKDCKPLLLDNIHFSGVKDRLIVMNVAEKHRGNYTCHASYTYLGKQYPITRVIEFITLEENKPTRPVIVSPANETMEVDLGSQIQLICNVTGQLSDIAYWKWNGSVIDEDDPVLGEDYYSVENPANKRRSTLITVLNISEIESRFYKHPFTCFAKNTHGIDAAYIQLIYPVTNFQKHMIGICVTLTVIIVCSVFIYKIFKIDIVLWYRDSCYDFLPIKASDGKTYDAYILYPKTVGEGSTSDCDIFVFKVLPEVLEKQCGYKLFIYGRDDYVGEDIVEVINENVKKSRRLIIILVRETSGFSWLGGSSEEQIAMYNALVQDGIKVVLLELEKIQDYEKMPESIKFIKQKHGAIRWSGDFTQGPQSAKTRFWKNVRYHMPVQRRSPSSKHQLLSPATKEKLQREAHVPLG

T4: IL-1R-I on cells (TF-1 cells, NHDF cells, human whole blood) (human, UniProt P14778 18-569)
T4 sequence (looked up): T3 sequence (looked up)

B1: His6-tagged Z12884 (designed binder)
chain: MGSSHHHHHHLQVDAKYAKEASLAQHEIFALPNLTRKQYTAFIRKLFDDPSQSSELLSEAKKLNDSQAPKVD
notes: also called His6-Z12884
B2: His6-tagged Z12911 (designed binder)
chain: B1 chain with A21H, S22E, L23K, Q25I, H26L, A30H, K37R, F47L
notes: also called His6-Z12911
B3: His6-tagged Z12895 (designed binder)
chain: B1 chain with S22L, L23S, H26Q, K37R, F47L
notes: also called His6-Z12895
B4: His6-tagged Z12917 (designed binder)
chain: B1 chain with S22R, L23Q, Q25Y, H26A, F29Y, A30L, K37R, F47L
notes: also called His6-Z12917
B5: His6-tagged Z12922 (designed binder)
chain: B1 chain with A21D, S22E, L23Q, H26L, A30N, K37R, F47L
notes: also called His6-Z12922
B6: Z18968 (His6-Z) (designed binder)
chain: B1 chain with A21L, S22E, L23E, A24V, H26L, A30R, K37R, R44I, F47L
B7: Z18912 (His6-Z) (designed binder)
chain: B1 chain with A21T, S22E, L23E, A24I, H26M, A30H, F47L
B8: Z18874 (His6-Z) (designed binder)
chain: B1 chain with A21L, S22E, L23A, A24I, H26M, A30H, K37R, F47L
B9: Z18831 (His6-Z) (designed binder)
chain: B1 chain with A21I, S22E, L23E, A24V, H26M, A30Y, K37R, F47L
B10: Z19172 (His6-Z) (designed binder)
chain: B1 chain with A21L, S22E, L23D, A24V, H26L, A30S, K37R, F47L
B11: Z19072 (His6-Z) (designed binder)
chain: B1 chain with A21I, S22E, L23E, A24I, H26L, A30S, F47L
B12: Z18813 (His6-Z) (designed binder)
chain: B1 chain with A21V, S22E, L23E, A24I, H26M
B13: Z18834 (His6-Z) (designed binder)
chain: B1 chain with A21V, S22E, L23E, A24I, H26M, A30G, K37R, F47L
B14: Z19159 (His6-Z) (designed binder)
chain: B1 chain with A21T, S22E, L23E, A24V, H26M, K37R, F47L
B15: Z19181 (His6-Z) (designed binder)
chain: B1 chain with A21V, S22E, L23E, A24V, H26L, F29Y, A30S, K37R, F47L
B16: Z18846 (His6-Z) (designed binder)
chain: B1 chain with A21I, S22E, L23E, A24I, H26M, A30H, K37R, F47L
B17: Z18814 (His6-Z) (designed binder)
chain: B1 chain with A21V, S22E, L23E, A24I, H26M, K37R, F47L

Molecular target: T1, Human IL-1R-I (RnD Systems cat. no. …)
Assay: Biacore 2000 SPR; hIL-1R-I immobilised on CM5, His6-Z at 40 and 10 nM, 1:1 model
From the text: One flow cell surface on the chip was activated and deactivated for use as blank during analyte injections.

Row | Kd [nM] | Binder
1 | 18 | B1
2 | 7.1 | B2
3 | 5.5 | B3
4 | 8 | B4
5 | 9.8 | B5

Molecular target: T2, human IL-1R-I
Assay: SPR; hIL-1R-I immobilized, His6-Z injected

Row | Kd [nM] | koff [s⁻¹] | kon [M⁻¹ s⁻¹] | Binder
6 | 0.28 | 0.0084 | 3e+07 | B6
7 | 0.21 | 0.019 | 9.2e+07 | B7
8 | 0.11 | 0.0052 | 4.9e+07 | B8
9 | 0.13 | 0.0053 | 4e+07 | B9
10 | 0.46 | 0.023 | 4.9e+07 | B10
11 | 0.41 | 0.018 | 4.3e+07 | B11
12 | 0.2 | 0.0039 | 2e+07 | B12
13 | 0.14 | 0.008 | 5.8e+07 | B13
14 | 0.19 | 0.005 | 2.7e+07 | B14
15 | 0.82 | 0.016 | 2e+07 | B15
16 | 0.11 | 0.0051 | 4.7e+07 | B16
17 | 0.15 | 0.0044 | 3e+07 | B17

Molecular target: T3, IL-1R-I on TF-1 cells
Assay: cell-based or functional assay

Row | IC50, TF-1 cell assay (IL-1β neutralization) [nM] | Binder
18 | 1.4 | B6
19 | 1 | B7
20 | 0.3 | B8
21 | 0.4 | B9
22 | 2 | B10
23 | 2.4 | B11
24 | 1.2 | B12
25 | 0.5 | B13
26 | 1.2 | B14
27 | 4.6 | B15
28 | 0.2 | B16
29 | 0.4 | B17

Molecular target: T4, IL-1R-I on cells (TF-1 cells, NHDF …)
Assay: cell-based or functional assay

Row | IC50, inhibition of IL-1B induced proliferation of TF-1 cells [nM] | Binder
30 | 27 | B1
31 | 30 | B2
32 | 7.1 | B3
33 | 11 | B4
34 | 66 | B5
